According to patent US20110319597A1 (CAPHALON AUSTRALIA, published 2011):
Values belong to the binder of their own block, whether it stands above or below them.

Target: T1, recombinant human TNFα (CytoLab) (human, UniProt P01375 in part)
T1 construct: coated on the ELISA plate at 1 µg/ml; also called Tumour necrosis factor alpha
Experiment: ELISA on coated human TNFα

T1 sequence (P01375 77-233 limits assumed): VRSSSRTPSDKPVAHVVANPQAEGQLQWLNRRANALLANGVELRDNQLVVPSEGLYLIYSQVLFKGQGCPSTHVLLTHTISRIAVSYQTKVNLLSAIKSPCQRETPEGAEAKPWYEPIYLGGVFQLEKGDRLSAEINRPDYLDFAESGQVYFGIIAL

B3: TNFα dAb Fc variant V58H (Fc fusion, name in Kabat numbering)
chain: DIQMTQSPSSLSASVGDRVTITCRASQAIDSYLHWYQQKPGKAPKLLIYSASNLETGHPSRFSGSGSGTDFTLTISSLLPEDFATYYCQQVVWRPFTFGQGTKVEIKRV[human IgG1 Fc with changes left out]
- A450 (AU): 0.22 AU

B4: TNFα dAb Fc variant V58Q (Fc fusion, name in Kabat numbering)
chain: DIQMTQSPSSLSASVGDRVTITCRASQAIDSYLHWYQQKPGKAPKLLIYSASNLETGQPSRFSGSGSGTDFTLTISSLLPEDFATYYCQQVVWRPFTFGQGTKVEIKRV[human IgG1 Fc with changes left out]
- A450 (AU): 0.207 AU

B5: TNFα dAb Fc variant Y87S (Fc fusion, name in Kabat numbering)
chain: DIQMTQSPSSLSASVGDRVTITCRASQAIDSYLHWYQQKPGKAPKLLIYSASNLETGVPSRFSGSGSGTDFTLTISSLLPEDFATYSCQQVVWRPFTFGQGTKVEIKRV[human IgG1 Fc with changes left out]
- A450 (AU): 0.201 AU

B7: TNFα dAb Fc variant Y36P (Fc fusion, name in Kabat numbering)
chain: DIQMTQSPSSLSASVGDRVTITCRASQAIDSYLHWPQQKPGKAPKLLIYSASNLETGVPSRFSGSGSGTDFTLTISSLLPEDFATYYCQQVVWRPFTFGQGTKVEIKRV[human IgG1 Fc with changes left out]
- A450 (AU): 0.243 AU

B8: TNFα dAb Fc variant Y49P (Fc fusion, name in Kabat numbering)
chain: DIQMTQSPSSLSASVGDRVTITCRASQAIDSYLHWYQQKPGKAPKLLIPSASNLETGVPSRFSGSGSGTDFTLTISSLLPEDFATYYCQQVVWRPFTFGQGTKVEIKRV[human IgG1 Fc with changes left out]
- A450 (AU): 0.188 AU

B11: TNFα dAb Fc variant V58A (Fc fusion, name in Kabat numbering)
chain: DIQMTQSPSSLSASVGDRVTITCRASQAIDSYLHWYQQKPGKAPKLLIYSASNLETGAPSRFSGSGSGTDFTLTISSLLPEDFATYYCQQVVWRPFTFGQGTKVEIKRV[human IgG1 Fc with changes left out]
- A450 (AU): 1.02 AU

B12: TNFα dAb Fc variant V58K (Fc fusion, name in Kabat numbering)
chain: DIQMTQSPSSLSASVGDRVTITCRASQAIDSYLHWYQQKPGKAPKLLIYSASNLETGKPSRFSGSGSGTDFTLTISSLLPEDFATYYCQQVVWRPFTFGQGTKVEIKRV[human IgG1 Fc with changes left out]
- A450 (AU): 0.205 AU

B13: TNFα dAb Fc variant V58D (Fc fusion, name in Kabat numbering)
chain: DIQMTQSPSSLSASVGDRVTITCRASQAIDSYLHWYQQKPGKAPKLLIYSASNLETGDPSRFSGSGSGTDFTLTISSLLPEDFATYYCQQVVWRPFTFGQGTKVEIKRV[human IgG1 Fc with changes left out]
- A450 (AU): 0.185 AU

B14: TNFα dAb Fc variant Y87D (Fc fusion, name in Kabat numbering)
chain: DIQMTQSPSSLSASVGDRVTITCRASQAIDSYLHWYQQKPGKAPKLLIYSASNLETGVPSRFSGSGSGTDFTLTISSLLPEDFATYDCQQVVWRPFTFGQGTKVEIKRV[human IgG1 Fc with changes left out]
- A450 (AU): 0.208 AU

B16: TNFα dAb Fc variant Y86P (Fc fusion, name in Kabat numbering)
chain: DIQMTQSPSSLSASVGDRVTITCRASQAIDSYLHWYQQKPGKAPKLLIYSASNLETGVPSRFSGSGSGTDFTLTISSLLPEDFATPYCQQVVWRPFTFGQGTKVEIKRV[human IgG1 Fc with changes left out]
- A450 (AU): 0.182 AU

B17: TNFα dAb Fc variant Y87Q (Fc fusion, name in Kabat numbering)
chain: DIQMTQSPSSLSASVGDRVTITCRASQAIDSYLHWYQQKPGKAPKLLIYSASNLETGVPSRFSGSGSGTDFTLTISSLLPEDFATYQCQQVVWRPFTFGQGTKVEIKRV[human IgG1 Fc with changes left out]
- A450 (AU): 0.192 AU

B18: TNFα dAb Fc variant Y86K (Fc fusion, name in Kabat numbering)
chain: DIQMTQSPSSLSASVGDRVTITCRASQAIDSYLHWYQQKPGKAPKLLIYSASNLETGVPSRFSGSGSGTDFTLTISSLLPEDFATKYCQQVVWRPFTFGQGTKVEIKRV[human IgG1 Fc with changes left out]
- A450 (AU): 0.185 AU

B19: TNFα dAb Fc variant Y36L (Fc fusion, name in Kabat numbering)
chain: DIQMTQSPSSLSASVGDRVTITCRASQAIDSYLHWLQQKPGKAPKLLIYSASNLETGVPSRFSGSGSGTDFTLTISSLLPEDFATYYCQQVVWRPFTFGQGTKVEIKRV[human IgG1 Fc with changes left out]
- A450 (AU): 0.237 AU

B20: TNFα dAb Fc variant Y87L (Fc fusion, name in Kabat numbering)
chain: DIQMTQSPSSLSASVGDRVTITCRASQAIDSYLHWYQQKPGKAPKLLIYSASNLETGVPSRFSGSGSGTDFTLTISSLLPEDFATYLCQQVVWRPFTFGQGTKVEIKRV[human IgG1 Fc with changes left out]
- A450 (AU): 0.717 AU

B21: TNFα dAb Fc variant Y36A (Fc fusion, name in Kabat numbering)
chain: DIQMTQSPSSLSASVGDRVTITCRASQAIDSYLHWAQQKPGKAPKLLIYSASNLETGVPSRFSGSGSGTDFTLTISSLLPEDFATYYCQQVVWRPFTFGQGTKVEIKRV[human IgG1 Fc with changes left out]
- A450 (AU): 0.185 AU

B23: TNFα dAb Fc variant Y87P (Fc fusion, name in Kabat numbering)
chain: DIQMTQSPSSLSASVGDRVTITCRASQAIDSYLHWYQQKPGKAPKLLIYSASNLETGVPSRFSGSGSGTDFTLTISSLLPEDFATYPCQQVVWRPFTFGQGTKVEIKRV[human IgG1 Fc with changes left out]
- A450 (AU): 0.176 AU

B24: TNFα dAb Fc variant V58P (Fc fusion, name in Kabat numbering)
chain: DIQMTQSPSSLSASVGDRVTITCRASQAIDSYLHWYQQKPGKAPKLLIYSASNLETGPPSRFSGSGSGTDFTLTISSLLPEDFATYYCQQVVWRPFTFGQGTKVEIKRV[human IgG1 Fc with changes left out]
- A450 (AU): 0.255 AU

B25: TNFα dAb Fc variant Y87A (Fc fusion, name in Kabat numbering)
chain: DIQMTQSPSSLSASVGDRVTITCRASQAIDSYLHWYQQKPGKAPKLLIYSASNLETGVPSRFSGSGSGTDFTLTISSLLPEDFATYACQQVVWRPFTFGQGTKVEIKRV[human IgG1 Fc with changes left out]
- A450 (AU): 0.219 AU

B26: TNFα dAb Fc variant Y36S (Fc fusion, name in Kabat numbering)
chain: DIQMTQSPSSLSASVGDRVTITCRASQAIDSYLHWSQQKPGKAPKLLIYSASNLETGVPSRFSGSGSGTDFTLTISSLLPEDFATYYCQQVVWRPFTFGQGTKVEIKRV[human IgG1 Fc with changes left out]
- A450 (AU): 0.263 AU

B27: TNFα dAb Fc variant Y86H (Fc fusion, name in Kabat numbering)
chain: DIQMTQSPSSLSASVGDRVTITCRASQAIDSYLHWYQQKPGKAPKLLIYSASNLETGVPSRFSGSGSGTDFTLTISSLLPEDFATHYCQQVVWRPFTFGQGTKVEIKRV[human IgG1 Fc with changes left out]
- A450 (AU): 0.212 AU

Results, then the binder that gave them:

- A450 (AU): 0.378 AU
B1: TNFα dAb Fc variant Y36K (Fc fusion, name in Kabat numbering)
chain: DIQMTQSPSSLSASVGDRVTITCRASQAIDSYLHWKQQKPGKAPKLLIYSASNLETGVPSRFSGSGSGTDFTLTISSLLPEDFATYYCQQVVWRPFTFGQGTKVEIKRV[human IgG1 Fc with changes left out]

- A450 (AU): 0.194 AU
B2: TNFα dAb Fc variant Y86D (Fc fusion, name in Kabat numbering)
chain: DIQMTQSPSSLSASVGDRVTITCRASQAIDSYLHWYQQKPGKAPKLLIYSASNLETGVPSRFSGSGSGTDFTLTISSLLPEDFATDYCQQVVWRPFTFGQGTKVEIKRV[human IgG1 Fc with changes left out]

- A450 (AU): 0.167 AU
B6: TNFα dAb Fc variant Y36Q (Fc fusion, name in Kabat numbering)
chain: DIQMTQSPSSLSASVGDRVTITCRASQAIDSYLHWQQQKPGKAPKLLIYSASNLETGVPSRFSGSGSGTDFTLTISSLLPEDFATYYCQQVVWRPFTFGQGTKVEIKRV[human IgG1 Fc with changes left out]

- A450 (AU): 0.153 AU
B9: TNFα dAb Fc variant Y86A (Fc fusion, name in Kabat numbering)
chain: DIQMTQSPSSLSASVGDRVTITCRASQAIDSYLHWYQQKPGKAPKLLIYSASNLETGVPSRFSGSGSGTDFTLTISSLLPEDFATAYCQQVVWRPFTFGQGTKVEIKRV[human IgG1 Fc with changes left out]

- A450 (AU): 0.168 AU
B10: TNFα dAb Fc variant Y36D (Fc fusion, name in Kabat numbering)
chain: DIQMTQSPSSLSASVGDRVTITCRASQAIDSYLHWDQQKPGKAPKLLIYSASNLETGVPSRFSGSGSGTDFTLTISSLLPEDFATYYCQQVVWRPFTFGQGTKVEIKRV[human IgG1 Fc with changes left out]

- A450 (AU): 0.399 AU
B15: TNFα dAb Fc variant V58S (Fc fusion, name in Kabat numbering)
chain: DIQMTQSPSSLSASVGDRVTITCRASQAIDSYLHWYQQKPGKAPKLLIYSASNLETGSPSRFSGSGSGTDFTLTISSLLPEDFATYYCQQVVWRPFTFGQGTKVEIKRV[human IgG1 Fc with changes left out]

- A450 (AU): 0.283 AU
B22: TNFα dAb Fc variant Y87K (Fc fusion, name in Kabat numbering)
chain: DIQMTQSPSSLSASVGDRVTITCRASQAIDSYLHWYQQKPGKAPKLLIYSASNLETGVPSRFSGSGSGTDFTLTISSLLPEDFATYKCQQVVWRPFTFGQGTKVEIKRV[human IgG1 Fc with changes left out]

- A450 (AU): 0.222 AU
B28: TNFα dAb Fc variant Y87H (Fc fusion, name in Kabat numbering)
chain: DIQMTQSPSSLSASVGDRVTITCRASQAIDSYLHWYQQKPGKAPKLLIYSASNLETGVPSRFSGSGSGTDFTLTISSLLPEDFATYHCQQVVWRPFTFGQGTKVEIKRV[human IgG1 Fc with changes left out]

- A450 (AU): 0.149 AU
B29: TNFα dAb Fc variant Y36H (Fc fusion, name in Kabat numbering)
chain: DIQMTQSPSSLSASVGDRVTITCRASQAIDSYLHWHQQKPGKAPKLLIYSASNLETGVPSRFSGSGSGTDFTLTISSLLPEDFATYYCQQVVWRPFTFGQGTKVEIKRV[human IgG1 Fc with changes left out]
